Source: the supplement of paper PMC12645437, “Orthogonal IMiD-Degron Pairs Induce Selective Protein Degradation in Cells” (ACS Chemical Biology, 2025)
The other results are listed elsewhere or left out.

Each sequence was assayed against no compound (DMSO) (assay: log2 fold change of degron read counts, EGFP-low vs EGFP+ sorted cells; higher = lower degron-EGFP level without compound (poor expression or instability)). Conditions: compound: DMSO control; 18 h.
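Note: jurkat cells carrying a lentiviral library of mutant zinc finger degrons fused to EGFP plus mCherry, mCherry+ cells FACS sorted, degron abundance counted by next-generation sequencing.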

Row | Sequence | log2 fold change of degron read counts
1 | FNCEICGRIFTQKGNLLRHIKL | -1.08
2 | FICNVCGAPFTQKGNLLRHIKL | -0.0114
3 | FRCEVCGAQFTQKGNLLRHIKL | -1.59
4 | FHCDVCGAFFTQKGNLLRHIKL | -0.502
5 | FNCPICGHAFTQKGNLLRHIKL | -0.783
6 | FNCEICGRFFTQKGNLLRHIKL | -0.728
7 | FKCDICGAGFTQKGNLLRHIKL | -1.02
8 | FRCEQCGAEFTQKGNLLRHIKL | -1.7
9 | LQCPICGFCCTQKGNLLRHIKL | 0.501
10 | LDCNQCGFECTQKGNLLRHIKL | 0.176
11 | FICPQCGADFTQKGNLLRHIKL | -0.815
12 | FYCDICGASFTQKGNLLRHIKL | -1.1
13 | LECPICGFACTQKGNLLRHIKL | 0.314
14 | FICNQCGHCFTQKGNLLRHIKL | -0.239
